{"source": "the RNAGym collection of RNA variant scans (doi:10.1093/nar/gkz1192)", "parents": {"B1": {"name": "CPEB3 Ribozyme (parent)", "chain": "UAACAGGGGGCCACAGCAGAAGCGUUCACGUCGCAGCCCCUGUCAGAUUCUGGUGAAUCUGCGAAUUCUGCUGUAUAUCUC"}}, "note": "Read counts are not given, so values of variants with three or more changes are uncertain.", "data": [{"variants_of": "B1", "experiment": "self-cleavage, relative activity (ratio to wild type); higher = more cleavage; in vitro, sequencing", "in_short": "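Barcoded CPEB3 ribozyme mutants, produced by rounds of error-prone PCR, self-cleaved while being transcribed with T7 RNA polymerase for 5 hours at 37°C and during a subsequent 15 min DNase I step before EDTA was added. Sequencing of template-switched cDNA on Illumina gave cleaved and total reads, and DNA sequencing assigned barcodes to variants. Each variant's relative activity is its cleaved/total read fraction divided by the unmutated ribozyme's fraction, averaged across three batches. A variant needed a minimum of 5 reads.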", "values": [{"variant": "UAACAGGGGGCCACAGCAGAAGCGUCCGCGUCGCAGCCCCUGACAGAUCCUGGUGAAUCUGCGAAUUCUGCUGUAUAUCUC", "note": "[U26C A28G U43A U49C]", "self-cleavage": 0.13}, {"variant": "UAACAGGGGGCCACAGCAGAAGCGUACACGUCGCAGCCCCUGUCAGAUACUGGUGACUCUGCGAAUUCUGCUGUAUAUCUC", "note": "[U26A U49A A57C]", "self-cleavage": 0.17}, {"variant": "UAACAGGGGGCCACAGCAGAAGCGUACACGUCGCAGCCCCUGUCAGAUUCUGGUGAAUCUGCGAAUCCUGCUGUAUAUCAC", "note": "[U26A U67C U80A]", "self-cleavage": 0.22}, {"variant": "UAACAGGGGGCCACAGCAGAAGCGUACACGUCCCAGCCCCCGUCAGAUUCUGGUGAAUCUGCGAAUUCUGCCGUAUAUCUC", "note": "[U26A G33C U41C U72C]", "self-cleavage": 0.16}, {"variant": "UAACAGGGGGCCACAGCAGAAGCGUCCACGUCGCCGCUCCUGUCAGAUUCUGGUGAAUCUGCGAAUUCCGCUGUAAAUCUC", "note": "[U26C A35C C38U U69C U76A]", "self-cleavage": 0.17}, {"variant": "UAACAGGGGGCCACAGCAGAAGCGUACACGUCGCAGCCCCUGUCAGAUUCUGGUGAAUCUGCGAAUUCUGCAGUGUAUCUC", "note": "[U26A U72A A75G]", "self-cleavage": 1.05}, {"variant": "UAACAGGGGGCCACAGCAGAAGCGUACACGUCGCAACCCCUGUCAGAUUCUGGUGAAUCUGCGAAUUCAGCUGUAUAUCUC", "note": "[U26A G36A U69A]", "self-cleavage": 0.14}, {"variant": "UAACAGGGGGCCACAGCAGAAGCGUCCACGUCGCGGCCCAUAUCAGAUACUGGUGAAUCUGCGAAUUCUGCUGUAUAUCUC", "note": "[U26C A35G C40A G42A U49A]", "self-cleavage": 0.29}, {"variant": "UAACAGGGGGCCACAGCAGAAGCGUACACGUCGCAGCCCCUGCCAGAUUCUGGUGAAUCUGCGAAUUCUGCCGUAUAUCUC", "note": "[U26A U43C U72C]", "self-cleavage": 0.26}, {"variant": "UAACAGGGGGCCACAGCAGAAGCGUCCACGUCGCGGCCCCUGACAGAUUCUGGUGAAUCUGCGAAUUCUGCUGUAUAUCUC", "note": "[U26C A35G U43A]", "self-cleavage": 0.26}, {"variant": "UAACAGGGGGCCACAGCAGAAGCGUCCCCGUCGCAGCUCCUGUCAGAUUCUGGUGGAUCCGCGGAUUCUGCAGUAUAUCUC", "note": "[U26C A28C C38U A56G U60C A64G U72A]", "self-cleavage": 0.13}, {"variant": "UAACAGGGGGCCACAGCAGAAGCGUACACGUCACAGCCCCUGUCAGAUUCUGGUGAAUCUGCGAAUUCUGCUGAAUAUCUC", "note": "[U26A G33A U74A]", "self-cleavage": 0.21}, {"variant": "UAACAGGGGGCCACAGCAGAAGCGUACACGUCGCAGCCCCUGUCAGAUUAUGGUGAACCUGCGAAUUCUGCUGUAUACCUC", "note": "[U26A C50A U58C U78C]", "self-cleavage": 0.13}, {"variant": "UAACAGGGGGCCACAGCAGAAGCGUACACGUCGCAGCCCCUGACAGGUUCUGGUGAAUCUGCGAAUUCUGCCGUAUAUCCC", "note": "[U26A U43A A47G U72C U80C]", "self-cleavage": 0.1}, {"variant": "UAACAGGGGGCCACAGCAGAAGCGUACACGUCGCAGCCCCUGUCAGAUUCUGGUGAAUUUGCGAAUUCUGCUGGAUAUCUC", "note": "[U26A C59U U74G]", "self-cleavage": 0.59}, {"variant": "UAACAGGGGGCCACAGCAGAAGCGUACACGUCGCAGCCCCUGACGGAUUCGGGUGAACCUGCGAAUUCUGCUGUAUAUCUC", "note": "[U26A U43A A45G U51G U58C]", "self-cleavage": 0.11}, {"variant": "UAACAGGGGGCCACAGCAGAAGCGUACACGUCGCAGCCCCUGUCAGAUUCUGGUGAAUCAGCGAGUUCUGCUGUAUAUCUC", "note": "[U26A U60A A65G]", "self-cleavage": 0.2}, {"variant": "UAACAGGGGGCCACAGCAGAAGCGUACACCUCGCAGCCCCUGUCAGAUUCUGGUGAAUCCGCGAAUUCCGCUGUAUAACUC", "note": "[U26A G30C U60C U69C U78A]", "self-cleavage": 0.13}, {"variant": "UAACAGGGGGCCACAGCAGAAGCGUACACGCCGCAGCCCAUGUCAGAUUCUGGUGAAUCUGCGAAUUCUGCUGUAUACCUC", "note": "[U26A U31C C40A U78C]", "self-cleavage": 0.14}, {"variant": "UAACAGGGGGCCACAGCAGAAGCGUACACGUCGCAGCCCCUGUCAGAUUCCGGUGGAUCUGCGAGCUCUGCUGUAUACCUC", "note": "[U26A U51C A56G A65G U66C U78C]", "self-cleavage": 0.08}, {"variant": "UAACAGGGGGCCACAGCAGAAGCGUACACGUCGCAGCCCCUGUCAGAUUCUGGUGAAUCUGCGAAUACUGCUGUAUGUCUC", "note": "[U26A U67A A77G]", "self-cleavage": 0.31}, {"variant": "UAACAGGGGGCCACAGCAGAAGCGUCCCCGUCGCAGCCCCUGUCAGAUUCUGGUGAAUCCGCGAGUUCUGCUGUAUAUCUC", "note": "[U26C A28C U60C A65G]", "self-cleavage": 0.17}, {"variant": "UAACAGGGGGCCACAGCAGAAGCGUACACGUCGCAGCCCCUGUCAGAUUCUGGUGAAUCUGCGAAUUCUGCAGUAUUUCUC", "note": "[U26A U72A A77U]", "self-cleavage": 0.36}, {"variant": "UAACAGGGGGCCACAGCAGAAGCGUCCCCGUCGCCGCCCCUGUCAGAUUCUGGUGGAUCUGCGGAUUCUGCUGUAUAGCAC", "note": "[U26C A28C A35C A56G A64G U78G U80A]", "self-cleavage": 0.02}, {"variant": "UAACAGGGGGCCACAGCAGAAGCGUCCACGUCGCGGCCCCUGUCAGGUUCUGGUGAAUCUGCGAAUUCUGCUGUAUAUCUC", "note": "[U26C A35G A47G]", "self-cleavage": 0.94}, {"variant": "UAACAGGGGGCCACAGCAGAAGCGUACACGUCGCAGCCCCUGUCAGAUUCAGGUGAAUCUGCGGAUUCUGCUGUAUAUCUC", "note": "[U26A U51A A64G]", "self-cleavage": 0.73}, {"variant": "UAACAGGGGGCCACAGCAGAAGCGUACACGUCGCAGCCCCUGUCAGAUUCCGGUGCUUCUGCGAAUUCUGCUGUAUAUCUC", "note": "[U26A U51C A56C A57U]", "self-cleavage": 0.1}, {"variant": "UAACAGGGGGCCACAGCAGAAGCGUACACGCCGCAGCCCCUGUCAGAUUCCGGUGAAUCUGCGAAUUCUGCUGUAUAUCUC", "note": "[U26A U31C U51C]", "self-cleavage": 0.73}, {"variant": "UAACAGGGGGCCACAGCAGAAGCGUACACGUCGCAGCCCCUGUCAGAUUCGGGGGUAUCUGCGAGUGCUGCAGUAUAUCUC", "note": "[U26A U51G U54G A56U A65G U67G U72A]", "self-cleavage": 0.21}, {"variant": "UAACAGGGGGCCACAGCAGAAGCGUACACGUCGCAGCCCCAGUCAGAUUCUGGUGAAUCUGCGGAUUCUGCUGUAUAUCUC", "note": "[U26A U41A A64G]", "self-cleavage": 0.44}, {"variant": "UAACAGGGGGCCACAGCAGAAGCGUACACGACGCAGCCCCUGUCAGAUUCUGGUGGAUCUGCGAAUUCUGCUGUAUAUCUC", "note": "[U26A U31A A56G]", "self-cleavage": 0.28}, {"variant": "UAACAGGGGGCCACAGCAGAAGCGUACACGUCGCAGCCCCUGUCAGAUUCUGGAGAAUCGGCGAAUUCUGCUGUAUAUCUC", "note": "[U26A U54A U60G]", "self-cleavage": 0.53}, {"variant": "UAACAGGGGGCCACAGCAGAAGCGUACACGUCGCAGCCCCUGUCAGAUUCUUGUACGUCUGCGAAUUCUGCUGUAUAUCUC", "note": "[U26A G52U G55A A56C A57G]", "self-cleavage": 0.26}, {"variant": "UAACAGGGGGCCACAGCAGAAGCGUCCGCGCCGCAGCCCCAGUCAGAUUCUGGUGAGUCUGCGAAUUCUGCUGUAUAUCUC", "note": "[U26C A28G U31C U41A A57G]", "self-cleavage": 0.11}]}]}
